Results: the supplement of paper PMC8728848
Some of the results follow.

Columns and labels:
Assay in all cases: glycan array binding signal (z-score within array); higher = stronger binding
Details in all cases: glycan notation: IUPAC condensed, linker removed
Gal3S(b1-4)Glc = biological target: Gal3S(b1-4)Glc
Outline: (§1)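 Glycan array binding is given as a within-array Z-score, which can be read as non-binding when negative. The arrays, 3228 of them, came from the Consortium for Functional Glycomics database and were retained only where the protein sequence was available. Z-scores were averaged across arrays of the same protein sequence at different concentrations or buffers and across linkers.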

Gal3S(b1-4)Glc6S = biological target: Gal3S(b1-4)Glc6S
Outline: as §1

Gal3S(b1-4)GlcNAc = biological target: Gal3S(b1-4)GlcNAc
Outline: as §1

[1] = biological target: Gal3S(b1-4)[Fuc(a1-3)]Glc6S
Outline: as §1

[2] = biological target: Gal3S(b1-4)[Fuc(a1-3)]GlcNAc
Outline: as §1

[3] = biological target: Gal3S(b1-4)[Fuc(a1-3)]GlcNAc6S
Outline: as §1

Gal3S4S(b1-4)GlcNAc = biological target: Gal3S4S(b1-4)GlcNAc
Outline: as §1

Gal3S6S(b1-4)GlcNAc = biological target: Gal3S6S(b1-4)GlcNAc
Outline: as §1

Gal3S6S(b1-4)GlcNAc6S = biological target: Gal3S6S(b1-4)GlcNAc6S
Outline: as §1

Gal4S(b1-4)GlcNAc = biological target: Gal4S(b1-4)GlcNAc
Outline: as §1

Gal4S6S(b1-4)GlcNAc = biological target: Gal4S6S(b1-4)GlcNAc
Outline: as §1

Gal6P(b1-4)GlcNAc = biological target: Gal6P(b1-4)GlcNAc
Outline: as §1

Gal6S(b1-3)GlcNAc = biological target: Gal6S(b1-3)GlcNAc
Outline: as §1

Gal6S(b1-3)GlcNAc6S = biological target: Gal6S(b1-3)GlcNAc6S
Outline: as §1

Gal6S(b1-4)Glc = biological target: Gal6S(b1-4)Glc
Outline: as §1

Gal6S(b1-4)Glc6S = biological target: Gal6S(b1-4)Glc6S
Outline: as §1

Gal6S(b1-4)GlcNAc = biological target: Gal6S(b1-4)GlcNAc
Outline: as §1

Gal6S(b1-4)GlcNAc6S = biological target: Gal6S(b1-4)GlcNAc6S
Outline: as §1

GalNAc(a1-3)Gal = biological target: GalNAc(a1-3)Gal
Outline: as §1

GalNAc(a1-3)GalNAc = biological target: GalNAc(a1-3)GalNAc
Outline: as §1

[4] = biological target: GalNAc(a1-3)GalNAc(b1-3)Gal(a1-4)Gal(b1-4)Glc
Outline: as §1

[5] = biological target: GalNAc(a1-3)GalNAc(b1-3)Gal(a1-4)Gal(b1-4)GlcNAc
Outline: as §1

GalNAc(b1-3)Gal = biological target: GalNAc(b1-3)Gal
Outline: as §1

[6] = biological target: GalNAc(b1-3)Gal(a1-4)Gal(b1-4)GlcNAc
Outline: as §1

[7] = biological target: GalNAc(b1-3)Gal(a1-4)Gal(b1-4)GlcNAc(b1-3)Gal(b1-4)Glc
Outline: as §1

[8] = biological target: GalNAc(b1-3)Gal(a1-6)Gal(b1-4)Glc
Outline: as §1

GalNAc(b1-3)GalNAc = biological target: GalNAc(b1-3)GalNAc
Outline: as §1

GalNAc(b1-3)GlcNAc = biological target: GalNAc(b1-3)GlcNAc
Outline: as §1

GalNAc(b1-4)Gal(b1-4)Glc = biological target: GalNAc(b1-4)Gal(b1-4)Glc
Outline: as §1

GalNAc(b1-4)GlcNAc = biological target: GalNAc(b1-4)GlcNAc
Outline: as §1

[9] = biological target: GalNAc(b1-4)GlcNAc(b1-2)Man
Outline: as §1

[10] = biological target: GalNAc(b1-4)GlcNAc(b1-2)Man(a1-3)[GalNAc(b1-4)GlcNAc(b1-2)Man(a1-6)]Man(b1-4)GlcNAc(b1-4)GlcNAc
Outline: as §1

[11] = biological target: GalNAc(b1-4)GlcNAc(b1-3)GalNAc(b1-4)GlcNAc
Outline: as §1

GalNAc(b1-4)GlcNAc6S = biological target: GalNAc(b1-4)GlcNAc6S
Outline: as §1

GalNAc(b1-6)GalNAc = biological target: GalNAc(b1-6)GalNAc
Outline: as §1

GalNAc3S(b1-4)GlcNAc = biological target: GalNAc3S(b1-4)GlcNAc
Outline: as §1

GalNAc3S(b1-4)GlcNAc3S = biological target: GalNAc3S(b1-4)GlcNAc3S
Outline: as §1

B1: Cohesin-hDC-ASGPR (Homo sapiens) (protein)
chain: LDDLDAVRIKVDTVNAKPGDTVRIPVRFSGIPSKGIANCDFVYSYDPNVLEIIEIEPGDIIVDPNPDKSFDTAVYPDRKIIVFLFAEDSGTGAYAITKDGVFATIVAKVKEGAPNGLSVIKFVEVGGFANNDLVEQKTQFFDGGANVGDTTEPATPTTPVTTPTTTDDLDAASQNSKFQRDLVTLRTDFSNFTSNTVAEIQALTSQGSSLEETIASLKAEVEGFKQERQAGVSELQEHTTQKAHLGHCPHCPSVCVPVHSEMLLRVQQLVQDLKKLTCQVATLNNNASTEGTCCPVNWVEHQDSCYWFSHSGMSWAEAEKYCQLKNAHLVVINSREEQNFVQKYLGSAYTWMGLSDPEGAWKWVDGTDYATGFQNWKPGQPDDWQGHGLGGGEDCAHFHPDGRWNDDVCQRPYHWVCEAGLGQTSQESHHHHHH
- glycan array binding signal (z-score) (Gal3S(b1-4)Glc): 0.565
- glycan array binding signal (z-score) (Gal3S(b1-4)Glc6S): 0.42
- glycan array binding signal (z-score) (Gal3S(b1-4)GlcNAc): -0.195
- glycan array binding signal (z-score) [1]: -0.472
- glycan array binding signal (z-score) [2]: -0.417
- glycan array binding signal (z-score) [3]: 0.512
- glycan array binding signal (z-score) (Gal3S4S(b1-4)GlcNAc): -0.497
- glycan array binding signal (z-score) (Gal3S6S(b1-4)GlcNAc): -0.369
- glycan array binding signal (z-score) (Gal3S6S(b1-4)GlcNAc6S): -0.453
- glycan array binding signal (z-score) (Gal4S(b1-4)GlcNAc): -0.49
- glycan array binding signal (z-score) (Gal4S6S(b1-4)GlcNAc): -0.471
- glycan array binding signal (z-score) (Gal6P(b1-4)GlcNAc): -0.411
- glycan array binding signal (z-score) (Gal6S(b1-3)GlcNAc): -0.443
- glycan array binding signal (z-score) (Gal6S(b1-3)GlcNAc6S): -0.215
- glycan array binding signal (z-score) (Gal6S(b1-4)Glc): -0.443
- glycan array binding signal (z-score) (Gal6S(b1-4)Glc6S): -0.434
- glycan array binding signal (z-score) (Gal6S(b1-4)GlcNAc): -0.312
- glycan array binding signal (z-score) (Gal6S(b1-4)GlcNAc6S): -0.486
- glycan array binding signal (z-score) (GalNAc(a1-3)Gal): 2.61
- glycan array binding signal (z-score) (GalNAc(a1-3)GalNAc): 2.37
- glycan array binding signal (z-score) [4]: 2.11
- glycan array binding signal (z-score) [5]: 1.97
- glycan array binding signal (z-score) (GalNAc(b1-3)Gal): 2.76
- glycan array binding signal (z-score) [6]: 2.71
- glycan array binding signal (z-score) [7]: 2.52
- glycan array binding signal (z-score) [8]: 2.84
- glycan array binding signal (z-score) (GalNAc(b1-3)GalNAc): -0.484
- glycan array binding signal (z-score) (GalNAc(b1-3)GlcNAc): 2.81
- glycan array binding signal (z-score) (GalNAc(b1-4)Gal(b1-4)Glc): -0.339
- glycan array binding signal (z-score) (GalNAc(b1-4)GlcNAc): 2.7
- glycan array binding signal (z-score) [9]: 2.86
- glycan array binding signal (z-score) [10]: 2.33
- glycan array binding signal (z-score) [11]: 2.58
- glycan array binding signal (z-score) (GalNAc(b1-4)GlcNAc6S): 2.65
- glycan array binding signal (z-score) (GalNAc(b1-6)GalNAc): -0.512
- glycan array binding signal (z-score) (GalNAc3S(b1-4)GlcNAc): -0.474
- glycan array binding signal (z-score) (GalNAc3S(b1-4)GlcNAc3S): -0.51
